The full ranking holds about 81,000 sequences; the median of “one-hybrid fitness for binding parS DNA” is about -0.17, and the highest 2% start at about 0.51. This is one part of the list.
B1: Caulobacter ParB omega fusion; a variant is named by its letters at X, in order, B8GW30 (parent)
chain: MESVVVGEPGMSEGRRGLGRGLSALLGEVDAAPAQAPGEQLGGSREAPIEILQRNPDQPRRTFREEDLEDLSNSIREKGVLQPILVRPSPDTAGEYQIVAGERAWRAAQRAGLKTVPIMVRELDDLAVLEIGIIENVQRADLNVLEEALSYKVLMEKFERTQENIAQTIGKSXSHVANXMRLLXLPDEVQSYLVSGELTAXHARAIAAAADPVALAKQIIEGGLSVRETEALARKAPNLSAGKSKGGRPPRVKDTDTQALESDLSSVLGLDVSIDHRGSTGTLTITYATLEQLDDLCNRLTRGI

Variants of: B1
Assay: one-hybrid fitness for binding parS DNA (scaled: cognate 1, non-cognate 0); higher = stronger binding
Settings: with parS DNA site
Procedure, shortened: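 Fitness here means the log change in variant-to-wild-type read ratio between plasmids sequenced before and after selection. That scale was set so cognate equals 1 and non-cognate equals 0. The selection was a bacterial one-hybrid screen of Caulobacter ParB libraries, four specificity codons randomised, in E. coli USO carrying a HIS3 reporter with the site 19 bp from the promoter, grown 48 hours at 37°C on M9-minus-histidine with 0.1 mM IPTG and 5 mM 3-AT.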

Variant	one-hybrid fitness for binding parS DNA
DVRK	≤ 0.2
HIVS	≤ 0.2
SRWG	≤ 0.2
VDGT	≤ 0.2
NQYV	≤ 0.2
TRHY	≤ 0.2
QARA	≤ 0.2
MCPG	≤ 0.2
QKDD	≤ 0.2
HFCS	≤ 0.2
GENS	≤ 0.2
HLYR	≤ 0.2
GEIG	≤ 0.2
TSQF	≤ 0.2
HMAF	≤ 0.2
VDFY	≤ 0.2
VMCR	≤ 0.2
WDDV	≤ 0.2
EYPG	≤ 0.2
WQTT	≤ 0.2
QLMP	≤ 0.2
EPGC	≤ 0.2
EMIV	≤ 0.2
RFVR	≤ 0.2

Variant	one-hybrid fitness for binding parS DNA
TRKP	≤ 0.2
WLAC	≤ 0.2
PRIC	≤ 0.2
YAIV	≤ 0.2
SKEC	≤ 0.2
NFNS	≤ 0.2
YTYC	≤ 0.2
AQPT	≤ 0.2
QTFF	≤ 0.2
RWRR	≤ 0.2
HPRH	≤ 0.2
FDKC	≤ 0.2
IRAE	≤ 0.2
RKTP	≤ 0.2
HHIY	≤ 0.2
KGTQ	≤ 0.2
RQCP	≤ 0.2
RFWP	≤ 0.2
NEHM	≤ 0.2
DMGR	≤ 0.2
DQPT	≤ 0.2
KFSY	≤ 0.2
RGVT	0.33
VQDS	≤ 0.2

Variant	one-hybrid fitness for binding parS DNA
GREG	≤ 0.2
RGVE	≤ 0.2
TAKG	≤ 0.2
PHGS	≤ 0.2
HNYG	≤ 0.2
PTRD	≤ 0.2
PIIA	≤ 0.2
FKQV	≤ 0.2
HGHM	≤ 0.2
SKYR	≤ 0.2
IQNR	≤ 0.2
LYKP	≤ 0.2
PNID	≤ 0.2
GPES	≤ 0.2
PVSV	≤ 0.2
QGMF	≤ 0.2
VGRY	≤ 0.2
CVVE	≤ 0.2
QRNR	≤ 0.2
ADMS	≤ 0.2
RRLM	≤ 0.2
QEKF	≤ 0.2
CTRI	≤ 0.2
DETA	≤ 0.2

Variant	one-hybrid fitness for binding parS DNA
MGMD	≤ 0.2
GQNL	≤ 0.2
HLTR	≤ 0.2
PDSQ	≤ 0.2
ERCG	≤ 0.2
QHKT	≤ 0.2
NHHT	≤ 0.2
HYHR	≤ 0.2
PCNC	≤ 0.2
QHNM	≤ 0.2
WHFR	≤ 0.2
NKMT	≤ 0.2
NRNG	≤ 0.2
SIPT	≤ 0.2
LAFP	≤ 0.2
TPIS	≤ 0.2
KTCR	≤ 0.2
LNPC	≤ 0.2
SHNI	≤ 0.2
PADT	≤ 0.2
KQVL	≤ 0.2
FHML	≤ 0.2
CMTS	≤ 0.2
GTHK	≤ 0.2

Variant	one-hybrid fitness for binding parS DNA
DEYI	≤ 0.2
WSPW	≤ 0.2
SEMC	≤ 0.2
NLHC	≤ 0.2
GYNK	≤ 0.2
EWPA	≤ 0.2
AKPP	≤ 0.2
FRDM	≤ 0.2
VSIC	≤ 0.2
PPRS	≤ 0.2
TSGD	≤ 0.2
QKAC	≤ 0.2
RRYN	0.557
GGLS	≤ 0.2
DSRF	≤ 0.2
TPNL	≤ 0.2
AILI	≤ 0.2
MSTC	≤ 0.2
SPSW	≤ 0.2
PTAT	≤ 0.2
DCPG	≤ 0.2
VPRL	≤ 0.2
TSDR	≤ 0.2
LLPL	≤ 0.2

Variant	one-hybrid fitness for binding parS DNA
NNAT	≤ 0.2
GVMT	≤ 0.2
TLAC	≤ 0.2
TKKA	≤ 0.2
HDNL	≤ 0.2
CRKV	≤ 0.2
RNQY	0.38
YQPE	≤ 0.2
EWIS	≤ 0.2
RQQM	0.344
EKHL	≤ 0.2
RWMN	0.211
WHNT	≤ 0.2
PVGR	≤ 0.2
RNTM	0.233
RHRD	≤ 0.2
NLFT	≤ 0.2
SQLI	≤ 0.2
WAEL	≤ 0.2
HSGN	≤ 0.2
PTGE	≤ 0.2
HMKT	≤ 0.2
GPMF	≤ 0.2
ICWG	≤ 0.2

Variant	one-hybrid fitness for binding parS DNA
AWLR	≤ 0.2
NPES	≤ 0.2
QRHW	≤ 0.2
QLVS	≤ 0.2
DTVK	≤ 0.2
KKHY	≤ 0.2
TNQV	≤ 0.2
VKRA	≤ 0.2
NVDW	≤ 0.2
RGMF	≤ 0.2
REDG	≤ 0.2
NDVT	≤ 0.2
SWCS	≤ 0.2
MPLT	≤ 0.2
AWNT	≤ 0.2
MLKC	≤ 0.2
SVIN	≤ 0.2
AYHY	≤ 0.2
DNRC	≤ 0.2
HSRD	≤ 0.2
EQTF	≤ 0.2
QATL	≤ 0.2
LMCK	≤ 0.2
QFDG	≤ 0.2

Variant	one-hybrid fitness for binding parS DNA
RAIA	0.461
IDSE	≤ 0.2
IHAS	≤ 0.2
TLHI	≤ 0.2
TRPH	≤ 0.2
NTTG	≤ 0.2
IPPR	≤ 0.2
HEHS	≤ 0.2
LANI	≤ 0.2
TNLD	≤ 0.2
PEHG	≤ 0.2
QWYR	≤ 0.2
YLKS	≤ 0.2
PTFV	≤ 0.2
TYIS	≤ 0.2
KYTK	≤ 0.2
SSSW	≤ 0.2
ENRC	≤ 0.2
DAVV	≤ 0.2
VSKF	≤ 0.2
TATN	≤ 0.2
HVLL	≤ 0.2
VILS	≤ 0.2
SHTP	≤ 0.2

Variant	one-hybrid fitness for binding parS DNA
WNHS	≤ 0.2
WVTL	≤ 0.2
DHWS	≤ 0.2
SCDS	≤ 0.2
IYSL	≤ 0.2
AFVP	≤ 0.2
HMFN	≤ 0.2
KAHN	≤ 0.2
RTGC	0.955
RQFK	0.201
NHRF	≤ 0.2
YYRS	≤ 0.2
RQVD	≤ 0.2
TPEQ	≤ 0.2
LQFG	≤ 0.2
GIFS	≤ 0.2
EHNM	≤ 0.2
CIST	≤ 0.2
RQTR	≤ 0.2
DKPN	≤ 0.2
DTYG	≤ 0.2
VSWT	≤ 0.2
VIIR	≤ 0.2
PRSH	≤ 0.2

Variant	one-hybrid fitness for binding parS DNA
AVPD	≤ 0.2
VLQG	≤ 0.2
DLWM	≤ 0.2
VPMG	≤ 0.2
DVPS	≤ 0.2
QMPD	≤ 0.2
KWDT	≤ 0.2
QCES	≤ 0.2
KRLN	≤ 0.2
HAWS	≤ 0.2
ERGK	≤ 0.2
QTNL	≤ 0.2
RMAQ	≤ 0.2
LPPN	≤ 0.2
TPHT	≤ 0.2
LIVC	≤ 0.2
HENI	≤ 0.2
PQKM	≤ 0.2
LFPF	≤ 0.2
VKWV	≤ 0.2
QCAH	≤ 0.2
RAHH	0.26
YTTG	≤ 0.2
QSGD	≤ 0.2

Variant	one-hybrid fitness for binding parS DNA
RCAI	≤ 0.2
THAI	≤ 0.2
FNVV	≤ 0.2
KRTK	≤ 0.2
FEAL	≤ 0.2
GISG	≤ 0.2
EFNW	≤ 0.2
KHQR	≤ 0.2
MAKV	≤ 0.2
FMAV	≤ 0.2
QYIA	≤ 0.2
SPPM	≤ 0.2
RYSW	≤ 0.2
ETAV	≤ 0.2
KNWS	≤ 0.2
VCSL	≤ 0.2
PLES	≤ 0.2
VLAC	≤ 0.2
QSDN	≤ 0.2
YFAC	≤ 0.2
NWLA	≤ 0.2
MFRS	≤ 0.2
LWAI	≤ 0.2
CPNG	≤ 0.2

Variant	one-hybrid fitness for binding parS DNA
PAHV	≤ 0.2
AAEC	≤ 0.2
IKCV	≤ 0.2
RQPW	≤ 0.2
RRMV	≤ 0.2
AGCM	≤ 0.2
KTTY	≤ 0.2
YFQT	≤ 0.2
HLEG	≤ 0.2
KERY	≤ 0.2
KIAD	≤ 0.2
RTSW	0.241
TVFG	≤ 0.2
CTTS	≤ 0.2
RELW	≤ 0.2
VTPE	≤ 0.2
MSLE	≤ 0.2
AVTS	≤ 0.2
LKCE	≤ 0.2
KIQR	≤ 0.2
RTTR	≤ 0.2
DIEI	≤ 0.2
KIAM	≤ 0.2
MSPY	≤ 0.2

Variant	one-hybrid fitness for binding parS DNA
TRAK	≤ 0.2
ISQT	≤ 0.2
KYKS	≤ 0.2
RGAE	≤ 0.2
CMRE	≤ 0.2
SIDL	≤ 0.2
PEVN	≤ 0.2
MIPC	≤ 0.2
VCYR	≤ 0.2
CPTT	≤ 0.2
IQLC	≤ 0.2
RMQL	≤ 0.2
GDHV	≤ 0.2
IAFT	≤ 0.2
HTSH	≤ 0.2
VYSM	≤ 0.2
NIPM	≤ 0.2
HSFG	≤ 0.2
